# According to PubChem BioAssay AID1745853 (National Center for Advancing Translational Sciences (NCATS), 2022):
# This is one part of the list. The main result of the screen is listed elsewhere. These columns were measured beside it and carry no call.
# Key:
# Assay in all cases: Primary Screen for Target Class Profiling of Small Molecule Inhibitors of Methyltransferases
# [1] = biological target: Glycine N-methyltransferase (Homo sapiens) (UniProt Q14749); details: purified enzyme, MTase-Glo SAH luminescence; measured here: GNMT inhibition; at 40 µM; stronger effect = lower value
# Summary of the method: (§1)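 Each enzyme was assayed with SAM and its substrate. SAH formation detected by MTase-Glo luminescence; single-point 40 uM screen[…].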
# [2] = biological target: Guanidinoacetate N-methyltransferase (Homo sapiens) (UniProt Q14353); details: purified enzyme, MTase-Glo SAH luminescence; measured here: GAMT inhibition; at 40 µM; stronger effect = lower value
# Summary of the method: as §1
# [3] = biological target: Histamine N-methyltransferase (Homo sapiens) (UniProt P50135); details: purified enzyme, MTase-Glo SAH luminescence; measured here: HNMT inhibition; at 40 µM; stronger effect = lower value
# Summary of the method: as §1
# [4] = biological target: Nicotinamide N-methyltransferase (Homo sapiens) (UniProt P40261); details: purified enzyme, MTase-Glo SAH luminescence; measured here: NNMT inhibition; at 40 µM; stronger effect = lower value
# Summary of the method: as §1
# [5] = biological target: Phenylethanolamine N-methyltransferase (Homo sapiens) (UniProt P11086); details: purified enzyme, MTase-Glo SAH luminescence; measured here: PNMT inhibition; at 40 µM; stronger effect = lower value
# Summary of the method: as §1
# On the % scale 0 is the no-effect control and ±100 the full control effect.
SMILES,"activity change, negative = inhibition [1]","activity change, negative = inhibition [2]","activity change, negative = inhibition [3]","activity change, negative = inhibition [4]","activity change, negative = inhibition [5]"
COc1ccccc1CNc1nc2c(-c3ccc(Cl)cc3)nnn2c2ccccc12,-1.43%,0%,2.65%,3.92%,0.373%
Cn1cc(-c2cn(C)c(=O)n3cc(CNc4ccccc4)nc23)cn1,-24.4%,-7.4%,-6.53%,-16.8%,-16%
CCc1ccc(NC(=O)c2sc(=S)n3c2[nH]c(=O)c2cc(Cl)ccc23)cc1,-16%,0%,1.41%,-21.4%,-29.8%
CC1=C(C)C(=O)C(CCCCC#CCCCC#CCO)=C(C)C1=O,-37%,12%,5.85%,-4.38%,2.85%
COc1ccc(C)cc1NS(=O)(=O)c1cc2[nH]c(=O)[nH]c2cc1Cl,-5.27%,1.24%,-3.31%,-9.6%,-11%
CN(C)C(=O)c1ccc(S(=O)(=O)c2ccc(NC(=O)[C@@](C)(O)C(F)(F)F)c(Cl)c2)cc1,2.58%,-0.1%,9.13%,-12.6%,5.54%
CCOC(=O)C1CCN(C(=O)CN(C)S(=O)(=O)c2ccc3c(c2)CCCC(=O)N3)CC1,7.57%,0.241%,12.6%,11.3%,6.07%
CC(N)(Cc1ccc(O)cc1)C(=O)O (stereo not given),2.06%,-4.47%,3.98%,-12.7%,-8.15%
CC(C)NCC(O)c1ccc(NS(C)(=O)=O)cc1 (stereo not given),7.13%,13%,13.1%,-4.44%,3.74%
C=C(C)[C@H]1C[C@@H](O)C(=C)CC[C@@H](O)C(=C)[C@@H](O)C1,6.19%,4.77%,12.6%,-7.86%,10.1%
COc1ccc(-c2nnc(-c3ccccc3)o2)cc1S(=O)(=O)N1CCSCC1,2.66%,0.96%,0.821%,-0.792%,4.47%
Cc1nn(CC(=O)N2CCCCCC2)c(=O)c2nc(C(C)C)sc12,-3.64%,-0.586%,-1.55%,-2.67%,1.32%
CCCn1c(=O)c2cc(F)ccc2n2c(SCC(=O)Nc3ccc(Cl)cc3)nnc12,3.79%,0.043%,11.3%,-4.48%,5.36%
CCC(C)NC(=O)c1ccc2c(=O)n(C)c3nnc(SCC(=O)NCc4ccc(C)cc4)n3c2c1 (stereo not given),1.04%,2.42%,0.929%,-1.51%,-1.18%
O=C(CCCn1cncn1)N1CCCC(CCc2ccccc2C(F)(F)F)C1 (stereo not given),-6.72%,-8.18%,-4.19%,-19.1%,-5.2%
CCN(CCCNC(=O)CCc1nnc2n(Cc3ccccc3)c(=O)c3ccccc3n12)c1cccc(C)c1,-8.03%,-12.2%,-20.2%,-19.5%,-14.7%
Cc1ccc(Cn2c(=O)c3ccc(C(=O)NC(C)C)cc3n3c(=O)n(Cc4ccc(F)cc4)nc23)cc1,0.809%,3.96%,0.595%,1.8%,0.707%
CC(=O)O[C@H]1C[C@@H]2[C@]3(CC[C@]4(C)[C@@H](C5(C)CCC(C(C)(C)O)O5)[C@@H](O)C[C@@]24C)C[C@@]32CC[C@H](O[C@@H]3OC[C@@H](O)[C@H](O)[C@H]3O)C(C)(C)[C@H]12 (stereo not given in full),-5.29%,-16.6%,1.52%,-27.2%,0.537%
CC(NS(=O)(=O)c1ccc(Cl)c(-c2nnc(-c3ccccc3)o2)c1)C(=O)O (stereo not given),8.12%,4.38%,8.15%,8.38%,9.43%
CC1(C(=O)NC2CCCCCC2)Cn2c(ccc2-c2ccco2)C(=O)N1C1CCCC1 (stereo not given),-2.47%,3.65%,-0.249%,-20.4%,-2.14%

SMILES,"activity change, negative = inhibition [1]","activity change, negative = inhibition [2]","activity change, negative = inhibition [3]","activity change, negative = inhibition [4]","activity change, negative = inhibition [5]"
CCOC(=O)c1cc2n(n1)CC(C)(C(=O)NCc1ccc(Cl)cc1)N(Cc1ccc(C)o1)C2=O (stereo not given),0.474%,4.22%,-1.7%,-0.385%,2.09%
CC1C(=O)CC2C3CCC(C(=O)O)C12CC3(C)CO (stereo not given),-3.68%,-3.57%,9.4%,-18.8%,-14.2%
CCCn1c(=O)c2ccccc2n2c(=O)n(Cc3c(F)cccc3Cl)nc12,-0.874%,0.888%,7.22%,-21%,3.28%
N#Cc1cccc(CN[C@H]2[C@H](O)[C@H](O)C[C@@H]2c2cccnc2)c1,-2.66%,-3.29%,0.771%,-6.13%,-4.65%
COc1ccc(Br)cc1CN1C(=O)c2cc3ccccc3n2CC1(C)C(=O)NCc1ccccc1 (stereo not given),4.13%,3.06%,6.79%,3.02%,-1.08%
Nc1nc2ccc(Cl)cc2n2c(-c3ccccc3)nnc12,-1.54%,9.04%,6.17%,-6.28%,0.172%
COC[C@@H]1[C@H](NC(=O)c2csc(C)c2-c2ccccc2)[C@@H]2CCO[C@H]12,-6.44%,-6.79%,-4.5%,-9.54%,5.33%
COc1c2c(c(C)c3c1C(=O)OC3)O[C@@]1(C)CC(O)C(C(C)(C)O)[C@](C)(CCC(=O)O)[C@H]1C2 (stereo not given in full),-2.26%,-4.52%,-5.53%,-17.5%,-2.04%
CCc1cc2c(cc3n2CC(C)(C(=O)NC2CCCCCC2)N(CC(C)c2ccccc2)C3=O)s1 (stereo not given),-4.64%,3.73%,-2.83%,-0.477%,-4.8%
CC1CCCC(NC(=O)C2(C)Cn3c(nc4ccccc43)C(=O)N2CCc2ccccc2)C1C (stereo not given),1.87%,4.29%,-0.053%,1.78%,-0.935%
COc1ccc(CNC(=O)[C@@H](C)C2CC[C@@]3(C)CC[C@H](NC(=O)COc4ccccc4)[C@@H](C)[C@@H]3[C@H]2O)cc1 (stereo not given in full),-3.24%,0.372%,-9.27%,-7.1%,-6.63%
CCCNC(=O)c1ccc2c(=O)nc3c(-c4ccc(OC)cc4)n[nH]n3c2c1,-4.07%,4.66%,-2.18%,-0.344%,-2.12%
Cn1c(=O)c2ccc(C(=O)NC3CCCCC3)cc2n2c(=O)n(CC(=O)Nc3ccc(Cl)cc3)nc12,2.38%,5.6%,8.88%,-1.44%,2.83%
CCCn1c(=O)c2ccc(C(=O)NC(C)C)cc2n2c(SCc3cccc(OC)c3)nnc12,1.14%,1.68%,4.4%,-6.1%,-0.465%
C/C=C(\C)C(=O)O[C@H]1[C@@H](O[C@]2(COC(=O)CC(C)C)O[C@H](COC(=O)C(C)CC)[C@@H](OC(C)=O)[C@@H]2O)O[C@H](COC(C)=O)[C@@H](O)[C@@H]1O (stereo not given in full),3.1%,3.61%,5.62%,-10.3%,-3.54%
CC(C)c1ccc(N2C(=O)c3cc4sccc4n3CC2(C)C(=O)NC2CCCCC2)cc1 (stereo not given),-1%,6.34%,0.011%,3.54%,-1.73%
COc1ccc(Nc2nc3c(S(=O)(=O)c4ccc(C)cc4)nnn3c3ccccc23)cc1OC,-15.8%,5.41%,3.31%,1.36%,-1.34%
CCC(=O)N1CCc2sc(C(=O)NCCCOC)cc2C1,-3.9%,-8.97%,-1.3%,-8.34%,-5.37%
C=CCn1c(=O)c2ccc(C(=O)NCC(C)C)cc2n2c(=O)n(CC(=O)NCc3ccccc3)nc12,-3.29%,-0.851%,-4.67%,-11%,-5.66%
COc1ccc(Nc2n[nH]nc2C(=O)NCc2ccc3c(c2)OCO3)cc1,0.986%,4.95%,5.84%,1.78%,0.858%

SMILES,"activity change, negative = inhibition [1]","activity change, negative = inhibition [2]","activity change, negative = inhibition [3]","activity change, negative = inhibition [4]","activity change, negative = inhibition [5]"
O=C(c1cccc2c1NCCC2)N1CCn2nc(C(O)C3CC3)cc2C1 (stereo not given),-1.04%,-0.21%,1.9%,-7.15%,0.51%
Cn1cc(CN(Cc2c(C(=O)N3CCCC3)nc3sccn23)C2CC2)cn1,0.119%,-5.22%,1.75%,-3.66%,1.3%
OC[C@@H]1O[C@H](CNC2CCOCC2)[C@H](N2CCCCC2)[C@@H]1O,-3.27%,-5.16%,-3.18%,-5.71%,-2.87%
COc1ccc(CN2C(=O)[C@@H]3C[C@@H](O)CN3C3(CN(C)C3)C2=O)cc1,-2.99%,-6.38%,-1.88%,-6.18%,-5.48%
COc1ccc(CNC(=O)Cn2ccc3cc(S(=O)(=O)N4CCCC4)ccc32)cc1,-1.71%,3.66%,-3.7%,-6.09%,-0.478%
COc1ccc(NC(=O)CCc2nnc3n(Cc4ccc(Cl)cc4)c(=O)c4ccccc4n23)cc1,-1.61%,0%,4.54%,2.2%,-2.32%
CC1CCC(=O)CC(O)C(O)CC(=O)O1 (stereo not given),2.86%,3.54%,7.23%,-8.78%,1.82%
CCCn1c(=O)c2ccccc2n2c(=O)n(CC(=O)c3ccc(C)cc3)nc12,-2%,4.07%,2.9%,-2.41%,1.5%
COc1ccc2cc3n(c2c1)CC(C)(C(=O)NC1CCCCC1)N(Cc1cccc(Cl)c1)C3=O (stereo not given),-0.799%,2.8%,1.81%,0.22%,-0.611%
Cc1nc([C@@H]2CN(S(=O)(=O)c3ccc4c(c3)CCCC4)C[C@H]2C(N)=O)n[nH]1,-3.48%,-2.66%,-4.37%,-5.13%,-5.67%
COc1ccc(-c2ccc3ncn(C4CC4)c(=O)c3n2)cn1,-8.44%,-10.7%,-4.12%,-12%,-4.9%
COc1ccccc1C(=O)N1CCCC(c2nnc3n2C(C(=O)O)CC3)C1 (stereo not given),-4.97%,-8.59%,-3.06%,-12.8%,7.75%
CCN(CC)CCn1c(=O)c(Cc2ccc(OC)cc2)nc2ccccc21,-8.28%,3.63%,-16.3%,-13%,1.9%
O=C(CSc1nnc2n(Cc3ccccc3)c(=O)c3ccccc3n12)Nc1cc(F)ccc1F,-3.65%,3.69%,3.8%,-7.18%,-0.298%
CCc1cc2c(cc3n2CC(C)(C(=O)NC2CCCCCC2)N(c2cccc(C)c2C)C3=O)s1 (stereo not given),2.83%,3.9%,-2.29%,8.25%,0.922%
CC1OC2OC(=O)C3(C)CC4C5(CO5)C5=CC(=O)OC(C)(C)C5=CC(=O)C4(C)C(C1=O)C23 (stereo not given),-6.59%,-1.42%,9.57%,-14%,-10%
CC1(C(=O)NC2CCCC2)Cn2c(cc3sccc32)C(=O)N1Cc1cccc(F)c1 (stereo not given),-3.02%,2.43%,5.87%,-4.86%,0.011%
CC1(C)CCCC2(C)C1C(OC(=O)/C=C/C=C/C=O)C=C1COC(=O)C12O (stereo not given),-4.21%,-4.97%,-1.71%,-23.4%,-13.2%
Cc1cc(F)ccc1NS(=O)(=O)c1cc2c(cc1C)n(C)c(=O)n2C,10.4%,0%,6.24%,-2.25%,1.77%
